# Reference: the supplement of paper PMC8728848
# The other results are listed elsewhere or left out.
# Legend:
# Experiment in all cases: glycan array binding signal (z-score within array); higher = stronger binding
# Conditions in all cases: glycan notation: IUPAC condensed, linker removed
# [1] = molecular target: Gal(b1-3)[Fuc(a1-4)]GlcNAc
# Procedure, shortened: (§1)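 Columns mapping to the same glycan were averaged after glycan names were converted to IUPAC-condensed notation. The data come from 3228 arrays in the Consortium for Functional Glycomics database, limited to those with an available protein sequence. Binding is reported as a within-array Z-score averaged across arrays of one protein sequence and across linkers.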
# [2] = molecular target: Gal(b1-3)[Fuc(a1-4)]GlcNAc(b1-2)Man(a1-3)[Gal(b1-3)[Fuc(a1-4)]GlcNAc(b1-2)Man(a1-6)]Man(b1-4)GlcNAc(b1-4)GlcNAc
# Procedure, shortened: as §1
# [3] = molecular target: Gal(b1-3)[Fuc(a1-4)]GlcNAc(b1-2)Man(a1-3)[Gal(b1-3)[Fuc(a1-4)]GlcNAc(b1-2)Man(a1-6)]Man(b1-4)GlcNAc(b1-4)[Fuc(a1-6)]GlcNAc
# Procedure, shortened: as §1
# [4] = molecular target: Gal(b1-3)[Fuc(a1-4)]GlcNAc(b1-3)Gal(b1-3)[Fuc(a1-4)]GlcNAc
# Procedure, shortened: as §1
# [5] = molecular target: Gal(b1-3)[Fuc(a1-4)]GlcNAc(b1-3)Gal(b1-4)GlcNAc
# Procedure, shortened: as §1
# [6] = molecular target: Gal(b1-3)[Fuc(a1-4)]GlcNAc(b1-3)Gal(b1-4)[Fuc(a1-3)]GlcNAc
# Procedure, shortened: as §1
# [7] = molecular target: Gal(b1-3)[GlcNAc(b1-6)]GalNAc
# Procedure, shortened: as §1
# [8] = molecular target: Gal(b1-3)[Neu5Ac(a2-6)]GalNAc
# Procedure, shortened: as §1
# [9] = molecular target: Gal(b1-3)[Neu5Ac(a2-6)]GlcNAc(b1-6)Gal(b1-4)Glc
# Procedure, shortened: as §1
# [10] = molecular target: Gal(b1-3)[Neu5Ac(b2-6)]GalNAc
# Procedure, shortened: as §1
# [11] = molecular target: Gal(b1-4)GalNAc(a1-3)[Fuc(a1-2)]Gal(b1-4)GlcNAc
# Procedure, shortened: as §1
# [12] = molecular target: Gal(b1-4)GalNAc(b1-3)[Fuc(a1-2)]Gal(b1-4)GlcNAc
# Procedure, shortened: as §1
# [13] = molecular target: Gal(b1-4)Glc
# Procedure, shortened: as §1
# [14] = molecular target: Gal(b1-4)Glc6S
# Procedure, shortened: as §1
# [15] = molecular target: Gal(b1-4)GlcNAc
# Procedure, shortened: as §1
# [16] = molecular target: Gal(b1-4)GlcNAc(a1-6)Gal(b1-4)GlcNAc
# Procedure, shortened: as §1
# [17] = molecular target: Gal(b1-4)GlcNAc(b1-2)Man(a1-3)Man(b1-4)GlcNAc(b1-4)GlcNAc
# Procedure, shortened: as §1
# [18] = molecular target: Gal(b1-4)GlcNAc(b1-2)Man(a1-3)[Gal(b1-4)GlcNAc(b1-2)Man(a1-6)]Man(b1-4)GlcNAc(b1-4)GlcNAc
# Procedure, shortened: as §1
# [19] = molecular target: Gal(b1-4)GlcNAc(b1-2)Man(a1-3)[Gal(b1-4)GlcNAc(b1-2)Man(a1-6)]Man(b1-4)GlcNAc(b1-4)[Fuc(a1-6)]GlcNAc
# Procedure, shortened: as §1
# [20] = molecular target: Gal(b1-4)GlcNAc(b1-2)Man(a1-3)[Man(a1-6)]Man(b1-4)GlcNAc(b1-4)GlcNAc
# Procedure, shortened: as §1
# [21] = molecular target: Gal(b1-4)GlcNAc(b1-2)Man(a1-6)Man(b1-4)GlcNAc(b1-4)GlcNAc
# Procedure, shortened: as §1
# [22] = molecular target: Gal(b1-4)GlcNAc(b1-2)Man(a1-6)[Man(a1-3)]Man(b1-4)GlcNAc(b1-4)GlcNAc
# Procedure, shortened: as §1
# [23] = molecular target: Gal(b1-4)GlcNAc(b1-2)[Gal(b1-4)GlcNAc(b1-4)]Man(a1-3)[Gal(b1-4)GlcNAc(b1-2)Man(a1-6)]Man(b1-4)GlcNAc(b1-4)GlcNAc
# Procedure, shortened: as §1
# [24] = molecular target: Gal(b1-4)GlcNAc(b1-3)Gal(b1-3)GlcNAc
# Procedure, shortened: as §1
# [25] = molecular target: Gal(b1-4)GlcNAc(b1-3)Gal(b1-4)Glc
# Procedure, shortened: as §1
# [26] = molecular target: Gal(b1-4)GlcNAc(b1-3)Gal(b1-4)GlcNAc
# Procedure, shortened: as §1
# [27] = molecular target: Gal(b1-4)GlcNAc(b1-3)Gal(b1-4)GlcNAc(b1-3)Gal(b1-4)GlcNAc
# Procedure, shortened: as §1
# [28] = molecular target: Gal(b1-4)GlcNAc(b1-3)Gal(b1-4)[Fuc(a1-3)]GlcNAc(b1-3)Gal(b1-4)[Fuc(a1-3)]GlcNAc
# Procedure, shortened: as §1
# [29] = molecular target: Gal(b1-4)GlcNAc(b1-3)GalNAc
# Procedure, shortened: as §1
# [30] = molecular target: Gal(b1-4)GlcNAc(b1-3)[Gal(b1-4)GlcNAc(b1-6)]Gal(b1-4)GlcNAc
# Procedure, shortened: as §1
# [31] = molecular target: Gal(b1-4)GlcNAc(b1-3)[GlcNAc(b1-6)]Gal(b1-4)GlcNAc
# Procedure, shortened: as §1
# [32] = molecular target: Gal(b1-4)GlcNAc(b1-6)Gal(b1-4)GlcNAc
# Procedure, shortened: as §1
# [33] = molecular target: Gal(b1-4)GlcNAc(b1-6)Gal(b1-4)GlcNAc(b1-6)GalNAc
# Procedure, shortened: as §1
# [34] = molecular target: Gal(b1-4)GlcNAc(b1-6)GalNAc
# Procedure, shortened: as §1
# [35] = molecular target: Gal(b1-4)GlcNAc(b1-6)[Gal(b1-3)]GalNAc
# Procedure, shortened: as §1
# [36] = molecular target: Gal3S(b1-3)GalNAc
# Procedure, shortened: as §1
# [37] = molecular target: Gal3S(b1-3)GlcNAc
# Procedure, shortened: as §1
# [38] = molecular target: Gal3S(b1-3)[Fuc(a1-4)]GlcNAc
# Procedure, shortened: as §1
# [39] = molecular target: Gal3S(b1-4)Glc
# Procedure, shortened: as §1
# [40] = molecular target: Gal3S(b1-4)Glc6S
# Procedure, shortened: as §1
# [41] = molecular target: Gal3S(b1-4)GlcNAc
# Procedure, shortened: as §1
# [42] = molecular target: Gal3S(b1-4)GlcNAc6S
# Procedure, shortened: as §1
# [43] = molecular target: Gal3S(b1-4)[Fuc(a1-3)]Glc
# Procedure, shortened: as §1
# [44] = molecular target: Gal3S4S(b1-4)GlcNAc
# Procedure, shortened: as §1
# [45] = molecular target: Gal3S6S(b1-4)GlcNAc
# Procedure, shortened: as §1
# [46] = molecular target: Gal3S6S(b1-4)GlcNAc6S
# Procedure, shortened: as §1
# [47] = molecular target: Gal4S(b1-4)GlcNAc
# Procedure, shortened: as §1
# [48] = molecular target: Gal4S6S(b1-4)GlcNAc
# Procedure, shortened: as §1
# [49] = molecular target: Gal6S(b1-4)Glc
# Procedure, shortened: as §1
# [50] = molecular target: Gal6S(b1-4)Glc6S
# Procedure, shortened: as §1
# [51] = molecular target: Gal6S(b1-4)GlcNAc
# Procedure, shortened: as §1
# [52] = molecular target: Gal6S(b1-4)GlcNAc6S
# Procedure, shortened: as §1
# [53] = molecular target: GalNAc(a1-3)Gal
# Procedure, shortened: as §1
# [54] = molecular target: GalNAc(a1-3)GalNAc
# Procedure, shortened: as §1
# [55] = molecular target: GalNAc(b1-3)Gal
# Procedure, shortened: as §1
# [56] = molecular target: GalNAc(b1-3)Gal(a1-4)Gal(b1-4)GlcNAc
# Procedure, shortened: as §1
# [57] = molecular target: GalNAc(b1-3)Gal(a1-4)Gal(b1-4)GlcNAc(b1-3)Gal(b1-4)Glc
# Procedure, shortened: as §1
# [58] = molecular target: GalNAc(b1-3)GalNAc
# Procedure, shortened: as §1
# [59] = molecular target: GalNAc(b1-4)GlcNAc
# Procedure, shortened: as §1
# [60] = molecular target: GalNAc(b1-4)GlcNAc(b1-2)Man(a1-3)[GalNAc(b1-4)GlcNAc(b1-2)Man(a1-6)]Man(b1-4)GlcNAc(b1-4)GlcNAc
# Procedure, shortened: as §1
binder,measurement,setting,value
"Eap (Staphylococcus aureus), A0A7L5PYT7 (protein) MKFKSLITTTLALGVLASTGANFNNNEAAAAAKPLDKSSSSLHHGYSKVHVPYAITVNGTSQNILSSLTFNKNQNISYKDLEDRVKSVLKSDRGISDIDLRLSKQAKYTVYFKNGTKKVIDLKAGIYTADLINTSEIKAININVDTKKQVEDKKKDKANYQVPYTITVNGTSQNILSNLTFNKNQNISYKDLEDKVKSVLESNRGITDVDLRLSKQAKYTVNFKNGTKKVIDLKSGIYTANLINSSDIKSININVDTKKHIENKAKRNYQVPYSINLNGTSTNILSNLSFSNKPWTNYKNLTSQIKSVLKHDRGISEQDLKYAKKAYYTVYFKNGGKRILQLNSKNYTANLVHAKDVKRIEITVKTGTKAKADRYVPYTIAVNGTSTPILSDLKFTGDPRVGYKDISKKVKSVLKHDRGIGERELKYAKKATYTVHFKNGTKKVININSNISQLNLLYVQDIKKIDIDVKTGTKAKADSYVPYTIAVNGTSTPILSKLKISNKQLISYKYLNDKVKSVLKSERGISDLDLKFAKQAKYTVYFKNGKKQVVNLKSDIFTPNLFSAKDIKKIDIDVKQYTKSKKNK",glycan array binding signal (z-score),[1],0.185
same,glycan array binding signal (z-score),[2],-0.132
same,glycan array binding signal (z-score),[3],-0.278
same,glycan array binding signal (z-score),[4],-0.569
same,glycan array binding signal (z-score),[5],-0.382
same,glycan array binding signal (z-score),[6],-0.491
same,glycan array binding signal (z-score),[7],-0.474
same,glycan array binding signal (z-score),[8],0.571
same,glycan array binding signal (z-score),[9],-0.584
same,glycan array binding signal (z-score),[10],-0.432
same,glycan array binding signal (z-score),[11],-0.437
same,glycan array binding signal (z-score),[12],-0.465
same,glycan array binding signal (z-score),[13],0.255
same,glycan array binding signal (z-score),[14],0.163
same,glycan array binding signal (z-score),[15],-0.336
same,glycan array binding signal (z-score),[16],-0.276
same,glycan array binding signal (z-score),[17],-0.568
same,glycan array binding signal (z-score),[18],-0.431
same,glycan array binding signal (z-score),[19],-0.308
same,glycan array binding signal (z-score),[20],-0.191
same,glycan array binding signal (z-score),[21],-0.437
same,glycan array binding signal (z-score),[22],-0.543
same,glycan array binding signal (z-score),[23],-0.618
same,glycan array binding signal (z-score),[24],-0.611
same,glycan array binding signal (z-score),[25],-0.119
same,glycan array binding signal (z-score),[26],0.059
same,glycan array binding signal (z-score),[27],-0.513
same,glycan array binding signal (z-score),[28],-0.515
same,glycan array binding signal (z-score),[29],-0.254
same,glycan array binding signal (z-score),[30],-0.448
same,glycan array binding signal (z-score),[31],-0.415
same,glycan array binding signal (z-score),[32],-0.689
same,glycan array binding signal (z-score),[33],0.366
same,glycan array binding signal (z-score),[34],-0.547
same,glycan array binding signal (z-score),[35],-0.507
same,glycan array binding signal (z-score),[36],0.303
same,glycan array binding signal (z-score),[37],0.396
same,glycan array binding signal (z-score),[38],-0.075
same,glycan array binding signal (z-score),[39],2.65
same,glycan array binding signal (z-score),[40],1.95
same,glycan array binding signal (z-score),[41],-0.007
same,glycan array binding signal (z-score),[42],1.93
same,glycan array binding signal (z-score),[43],0.55
same,glycan array binding signal (z-score),[44],1.97
same,glycan array binding signal (z-score),[45],2.29
same,glycan array binding signal (z-score),[46],1.73
same,glycan array binding signal (z-score),[47],0.156
same,glycan array binding signal (z-score),[48],0.381
same,glycan array binding signal (z-score),[49],0.921
same,glycan array binding signal (z-score),[50],1.51
same,glycan array binding signal (z-score),[51],0.224
same,glycan array binding signal (z-score),[52],-0.606
same,glycan array binding signal (z-score),[53],-0.283
same,glycan array binding signal (z-score),[54],-0.582
same,glycan array binding signal (z-score),[55],-0.569
same,glycan array binding signal (z-score),[56],-0.528
same,glycan array binding signal (z-score),[57],-0.361
same,glycan array binding signal (z-score),[58],-0.376
same,glycan array binding signal (z-score),[59],-0.317
same,glycan array binding signal (z-score),[60],-0.544
